# Results are given in words; binding and its absence hold for the method and conditions named. Binding seen in cells or lysates may run through a third protein. Some results given as binding are weak or reduced against the parent protein; the word gives no strength. For some assays here: Where a sequence is shown, tags or fusion partners need not be part of it.
# By UniProt entry, the sequences of proteins in these tests, tags left out. Where a name states a change or a piece, a line headed by the entry shows the natural chain unless it says otherwise. Chains listed by the source or under a name are the forms on record and can include a tag or linker. Residues count along the entry.
# MSP domain of human VAP-B (1-210), WT, C-terminal 6His-tag (O95292, residues 1-210): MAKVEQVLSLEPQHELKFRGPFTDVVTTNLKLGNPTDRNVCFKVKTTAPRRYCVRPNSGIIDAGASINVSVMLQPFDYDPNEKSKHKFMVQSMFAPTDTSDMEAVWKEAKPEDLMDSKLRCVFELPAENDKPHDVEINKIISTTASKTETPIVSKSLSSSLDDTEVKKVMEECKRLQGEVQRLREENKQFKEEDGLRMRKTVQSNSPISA
# MSP domain of human VAP-B (1-210), K87D/M89D mutant, C-terminal 6His-tag (O95292, form named): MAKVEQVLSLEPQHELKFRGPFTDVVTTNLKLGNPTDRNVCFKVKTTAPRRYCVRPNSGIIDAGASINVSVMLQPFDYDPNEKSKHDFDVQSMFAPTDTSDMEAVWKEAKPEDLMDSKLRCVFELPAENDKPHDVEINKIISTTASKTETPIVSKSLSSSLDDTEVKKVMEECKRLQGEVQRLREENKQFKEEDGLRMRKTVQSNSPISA
# T1: MSP domain of human VAP-A (8-212), K94D/M96D mutant, C-terminal 6His-tag (human) (UniProt Q9P0L0)
# T1 sequence: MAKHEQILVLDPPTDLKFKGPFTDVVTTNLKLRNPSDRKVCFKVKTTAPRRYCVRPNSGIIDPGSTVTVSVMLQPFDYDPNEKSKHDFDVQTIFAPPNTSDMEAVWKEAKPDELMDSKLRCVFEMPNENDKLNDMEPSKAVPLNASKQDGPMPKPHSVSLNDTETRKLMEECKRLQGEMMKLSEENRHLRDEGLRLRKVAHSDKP
# T2: MSP domain of human VAP-A (8-212), WT, C-terminal 6His-tag (human) (UniProt Q9P0L0)
# T2 sequence: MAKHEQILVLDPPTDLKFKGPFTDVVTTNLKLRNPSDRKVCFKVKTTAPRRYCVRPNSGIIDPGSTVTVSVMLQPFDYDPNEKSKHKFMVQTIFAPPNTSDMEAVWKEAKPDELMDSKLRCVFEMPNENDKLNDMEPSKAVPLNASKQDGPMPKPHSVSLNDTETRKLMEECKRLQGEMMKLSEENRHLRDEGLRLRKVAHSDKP
# T3: dVAP-A (Drosophila melanogaster (endogenous in fly heads)) (UniProt Q9W4N8)
# T3 sequence: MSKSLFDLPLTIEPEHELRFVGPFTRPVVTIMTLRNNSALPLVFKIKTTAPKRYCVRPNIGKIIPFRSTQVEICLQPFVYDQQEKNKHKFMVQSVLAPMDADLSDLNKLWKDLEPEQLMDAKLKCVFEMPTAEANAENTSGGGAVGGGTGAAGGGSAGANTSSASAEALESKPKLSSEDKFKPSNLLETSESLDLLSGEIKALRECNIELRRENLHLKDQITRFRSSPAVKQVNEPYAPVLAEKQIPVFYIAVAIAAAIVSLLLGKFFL
# What was measured:
# [1] = target: MSP domain of human VAP-B (1-210), WT, C-terminal 6His-tag (human) (UniProt O95292); assay: pull-down; 100 μg recombinant 6His MSP domain on nickel magnetic beads, incubated with HeLa protein extract 2 h at 4°C in PDB (50 mM Tris-HCl pH 7.4, 50 mM NaCl, 1 mM EDTA, 1% Triton X-100, 5 mM imidazole); eluted with Laemmli buffer; Western blot; only the target purified
# [2] = target: T1, MSP domain of human VAP-A (8-212), K94D/M96D mutant, C-terminal 6His-tag (human); assay: as above
# [3] = target: MSP domain of human VAP-B (1-210), K87D/M89D mutant, C-terminal 6His-tag (human) (UniProt O95292); assay: as above
# [4] = target: T2, MSP domain of human VAP-A (8-212), WT, C-terminal 6His-tag (human); assay: as above
# [5] = target: T3, dVAP-A (Drosophila melanogaster (endogenous in fly heads)); assay: co-IP; fly head lysates (UAS constructs under GMR promoter); dVAP-A antibody or control IgG overnight at 4°C, protein G Sepharose; Western blot
Binder,binding [1],binding [2],binding [3],binding [4],binding [5]
"ORP1L (long isoform of ORP1) (protein, UniProt Q9BXW6-1 1-950) MNTEAEQQLLHHARNGNAEEVRQLLETMARNEVIADINCKGRSKSNLGWTPLHLACYFGHRQVVQDLLKAGAEVNVLNDMGDTPLHRAAFTGRKELVMLLLEYNADTTIVNGSGQTAKEVTHAEEIRSMLEAVERTQQRKLEELLLAAAREGKTTELTALLNRPNPPDVNCSDQLGNTPLHCAAYRAHKQCALKLLRSGADPNLKNKNDQKPLDLAQGAEMKHILVGNKVIYKALKRYEGPLWKSSRFFGWRLFWVVLEHGVLSWYRKQPDAVHNIYRQGCKHLTQAVCTVKSTDSCLFFIKCFDDTIHGFRVPKNSLQQSREDWLEAIEEHSAYSTHYCSQDQLTDEEEEDTVSAADLKKSLEKAQSCQQRLDREISNFLKMIKECDMAKEMLPSFLQKVEVVSEASRETCVALTDCLNLFTKQEGVRNFKLEQEQEKNKILSEALETLATEHHELEQSLVKGSPPASILSEDEFYDALSDSESERSLSRLEAVTARSFEEEGEHLGSRKHRMSEEKDCGGGDALSNGIKKHRTSLPSPMFSRNDFSIWSILRKCIGMELSKITMPVIFNEPLSFLQRLTEYMEHTYLIHKASSLSDPVERMQCVAAFAVSAVASQWERTGKPFNPLLGETYELVRDDLGFRLISEQVSHHPPISAFHAEGLNNDFIFHGSIYPKLKFWGKSVEAEPKGTITLELLEHNEAYTWTNPTCCVHNIIVGKLWIEQYGNVEIINHKTGDKCVLNFKPCGLFGKELHKVEGYIQDKSKKKLCALYGKWTECLYSVDPATFDAYKKNDKKNTEEKKNSKQMSTSEELDEMPVPDSESVFIIPGSVLLWRIAPRPPNSAQMYNFTSFAMVLNEVDKDMESVIPKTDCRLRPDIRAMENGEIDQASEEKKRLEEKQRAARKNRSKSEEDWKTRWFHQGPNPYNGAQDWIYSGSYWDRNYFNLPDIY",binds,no binding,no binding,binds,–
"RDGB (retinal degeneration B), UAS-RDGB expressed under GMR promoter (protein, UniProt P43125 1-1259) MLIKEYRIPLPLTVEEYRIAQLYMIAKKSREESHGEGSGVEIIINEPYKDGPGGNGQYTKKIYHVGNHLPGWIKSLLPKSALTVEEEAWNAYPYTRTRYTCPFVEKFSLDIETYYYPDNGYQDNVFQLSGSDLRNRIVDVIDIVKDQLWGGDYVKEEDPKHFVSDKTGRGPLAEDWLEEYWREVKGKKQPTPRNMSLMTAYKICRVEFRYWGMQTKLEKFIHDVALRKMMLRAHRQAWAWQDEWFGLTIEDIRELERQTQLALAKKMGGGEECSDDSVSEPYVSTAATAASTTGSERKKSAPAVPPIVTQQPPSAEASSDEEGEEEEDDDEDENDAIGTGVDLSANQGGSAQRSRSQSIQMAQKGKFGSKGALHSPVGSAHSFDLQVANWRMERLEVDSKSNSDEEFFDCLDTNETNSLAKWSSLELLGEGDDSPPPHGGPSSAASVGGRGNSRQEDSIFNQDFLMRVASERGNKRQLRSSASVDRSHDSSPPGSPSTPSCPTTILILVVHAGSVLDAASELTAKKSDVTTFRGSFEAVMRQHYPSLLTHVTIKMVPCPSICTDALGILSSLSPYSFDASPSAADIPNIADVPIGAIPLLSVASPEFHETVNKTVAAANIVYHEFLKSEEGHGFSGQIVMLGDSMGSLLAYEALCRSNGSQPGTASGASNSGGDAATNINTHNPLSPRNSRLDDDERFIEADLDAKRLLVAPSPRRRRSSSSSDSRATKLDFEVCDFFMFGSPLSVVLAARKLHDAKAALPRPNCHQVYNLFHPTDPIASRLEPLLSARFSILAPVNVPRYAKYPLGNGQPLHLLEVIQSHPQHFNDGNNLLAGRRLSDASMQSTISGLIENVSLSTIHALQNKWWGTKRLDYALYCPEGLSNFPAHALPHLFHASYWESPDVIAFILRQIGKFEGIPFVGSNDDKDNASFHPGQPREKWIKKRTSVKLKNVAANHRANDVIVQEGREQRLNARFMYGPLDMITLHGEKVDVHIMKDPPAGEWTFLSTEVTDKNGRISYSIPDQVSLGYGIYPVKMVVRGDHTSVDCYMAVVPPLTECVVFSIDGSFTASMSVTGRDPKVRAGAVDVCRHWQELGYLLIYITGRPDMQQQRVVSWLSQHNFPHGLISFADGLSTDPLGHKTAYLNNLVQNHGISITAAYGSSKDISVYTNVGMRTDQIFIVGKVGKKLQSNATVLSDGYAAHLAGLQAVGGSRPAKGNARMVIPRGCFNLPGQTANPRRRRYLERKTVSSCCLMVFQTT",–,–,–,–,binds
"dCert::TurboID (protein, UniProt Q9Y128 1-601) MDTNAGESLGASPPSSNEAAAGSQSQSDASEEEEYLDNSIELRGYLSKWTNYIYGWQPRYIVLKDGTLSYYKSESESDFGCRGAISLTKATIKAHESDELRFDVVVNNLNNWCLRAETSEDRMHWVDVLQLYKADSGSTDTTSLRRHGSTMSLQSNTISLTSGGSLKKTQRNLREKVGELETFKDILFGQIETLQRYFDACSEVNKNNAQPLDLGDGLKSIDFKGESITFRATTSGVLTTLQHCLEIIAESDESWKRKLEREIDKRRRSEDQSKKLKDEVEKMKRLSYPGPDFEEGPHSTLPEDEFFDAVETGLDKIEEDMQLRFKLKLQSQISQTLVNVPHEAVAEGEEAREEFGTGAEATSHALWPEIDRVCKEQLHYAREGVGQDGNGWQIFADEGEIKMYKREEEVNGLVMDPLKAYHTVQGVTAREMCHYFFMPEFRNDWETTLEDCTILEKISADTLLFLQTHKRIWPASQRDAQFWSHMRKITDNLEPGARDMWVVCNNSTEYAKQESKNGKCVRIFLTVILACQTHLPEGYVKGQPLNRNDLTCKITYCSVVNPGGWAPASALRAVYKREYPKFLKRFTGYVIDQCKDKPIMF",–,–,–,–,binds
"STARD3NL (protein, UniProt O95772 1-234) MNHLPEDMENALTGSQSSHASLRNIHSINPTQLMARIESYEGREKKGISDVRRTFCLFVTFDLLFVTLLWIIELNVNGGIENTLEKEVMQYDYYSSYFDIFLLAVFRFKVLILAYAVCRLRHWWAIALTTAVTSAFLLAKVILSKLFSQGAFGYVLPIISFILAWIETWFLDFKVLPQEAEEENRLLIVQDASERAALIPGGLSDGQFYSPPESEAGSEEAEEKQDSEKPLLEL",binds,no binding,no binding,binds,–
"ORP1S (short isoform of ORP1) (protein, UniProt Q9BXW6-2 1-437) MSEEKDCGGGDALSNGIKKHRTSLPSPMFSRNDFSIWSILRKCIGMELSKITMPVIFNEPLSFLQRLTEYMEHTYLIHKASSLSDPVERMQCVAAFAVSAVASQWERTGKPFNPLLGETYELVRDDLGFRLISEQVSHHPPISAFHAEGLNNDFIFHGSIYPKLKFWGKSVEAEPKGTITLELLEHNEAYTWTNPTCCVHNIIVGKLWIEQYGNVEIINHKTGDKCVLNFKPCGLFGKELHKVEGYIQDKSKKKLCALYGKWTECLYSVDPATFDAYKKNDKKNTEEKKNSKQMSTSEELDEMPVPDSESVFIIPGSVLLWRIAPRPPNSAQMYNFTSFAMVLNEVDKDMESVIPKTDCRLRPDIRAMENGEIDQASEEKKRLEEKQRAARKNRSKSEEDWKTRWFHQGPNPYNGAQDWIYSGSYWDRNYFNLPDIY",no binding,no binding,no binding,no binding,–

# — paper PMC10948934
